From the supplement of paper PMC10886265
MIC by broth microdilution (CLSI, 0.25-128 µg/mL, 18 h, 37 °C) of Gram-negative wastewater isolates picked on carbapenem-selective plates; higher = less susceptible. No active / inactive call. Isolates were selected for resistance.

Assays:
Experiment in all cases: Broth microdilution (CLSI), cation-adjusted Mueller-Hinton broth, two-fold steps from 0.25 to 128 µg/mL, 18 h at 37 °C.
Meropenem = compound: C[C@@H](O)[C@H]1C(=O)N2C(C(=O)O)=C(S[C@@H]3CN[C@H](C(=O)N(C)C)C3)[C@H](C)[C@H]12 [Meropenem]
Ertapenem = compound: C[C@@H](O)[C@H]1C(=O)N2C(C(=O)O)=C(S[C@@H]3CN[C@H](C(=O)Nc4cccc(C(=O)O)c4)C3)[C@H](C)[C@H]12 [Ertapenem]
Imipenem = compound: C[C@@H](O)[C@H]1C(=O)N2C(C(=O)O)=C(SCCNC=N)C[C@H]12 [Imipenem]

“Acinetobacter baumannii isolate primary sludge #22 (carbapenemase genes (PCR): ND)” gave an MIC (Meropenem) of 32 µg/mL, an MIC (Ertapenem) of 64 µg/mL and an MIC (Imipenem) of 64 µg/mL.
“Acinetobacter johnsonii isolate sewage #226 (carbapenemase genes (PCR): IMP)” was tested, and the MIC (Meropenem) was 64 µg/mL, the MIC (Ertapenem) was 8 µg/mL and the MIC (Imipenem) was 16 µg/mL.
“Aeromonas caviae isolate primary sludge #32 (carbapenemase genes (PCR): KPC)” gave an MIC (Meropenem) of 128 µg/mL, an MIC (Ertapenem) of 64 µg/mL and an MIC (Imipenem) of 32 µg/mL.
In the case of “Aeromonas hydrophila isolate primary sludge #175 (carbapenemase genes (PCR): ND)”, the MIC (Meropenem) is reported as 64 µg/mL, the MIC (Ertapenem) is reported as 16 µg/mL and the MIC (Imipenem) is reported as 64 µg/mL.
“Aeromonas hydrophila isolate sewage #6 (carbapenemase genes (PCR): KPC)” showed an MIC (Meropenem) of 16 µg/mL, an MIC (Ertapenem) of 4 µg/mL and an MIC (Imipenem) of 16 µg/mL.
With “Citrobacter braakii isolate primary sludge #94 (carbapenemase genes (PCR): KPC)” the MIC (Meropenem) was 32 µg/mL, the MIC (Ertapenem) was 4 µg/mL and the MIC (Imipenem) was 8 µg/mL.
With “Citrobacter freundii isolate primary sludge #140 (carbapenemase genes (PCR): OXA-48+KPC)” the MIC (Meropenem) was 32 µg/mL, the MIC (Ertapenem) was 8 µg/mL and the MIC (Imipenem) was 16 µg/mL.
Work on “Citrobacter freundii isolate primary sludge #178 (carbapenemase genes (PCR): OXA-48)” yielded an MIC (Meropenem) of 128 µg/mL, an MIC (Ertapenem) of 32 µg/mL and an MIC (Imipenem) of 64 µg/mL.
With “Citrobacter freundii isolate primary sludge #179 (carbapenemase genes (PCR): OXA-48)” the MIC (Meropenem) was 128 µg/mL, the MIC (Ertapenem) was 32 µg/mL and the MIC (Imipenem) was 64 µg/mL.
Test System “Citrobacter freundii isolate primary sludge #195 (carbapenemase genes (PCR): KPC)” has an MIC (Meropenem) of 64 µg/mL, an MIC (Ertapenem) of 4 µg/mL and an MIC (Imipenem) of 16 µg/mL.
In the case of “Citrobacter freundii isolate secondary sludge #160 (carbapenemase genes (PCR): KPC)”, the MIC (Meropenem) is reported as 32 µg/mL, the MIC (Ertapenem) is reported as 16 µg/mL and the MIC (Imipenem) is reported as 16 µg/mL.
For “Citrobacter freundii isolate secondary sludge #161 (carbapenemase genes (PCR): KPC)”, the MIC (Meropenem) was 32 µg/mL, the MIC (Ertapenem) was 32 µg/mL and the MIC (Imipenem) was 16 µg/mL.
In the case of “Citrobacter freundii isolate secondary sludge #162 (carbapenemase genes (PCR): KPC)”, the MIC (Meropenem) is reported as 32 µg/mL, the MIC (Ertapenem) is reported as 32 µg/mL and the MIC (Imipenem) is reported as 16 µg/mL.
With “Citrobacter freundii isolate secondary sludge #163 (carbapenemase genes (PCR): KPC)” the MIC (Meropenem) was 32 µg/mL, the MIC (Ertapenem) was 32 µg/mL and the MIC (Imipenem) was 16 µg/mL.
Test System “Citrobacter freundii isolate sewage #206 (carbapenemase genes (PCR): KPC)” has an MIC (Meropenem) of 64 µg/mL, an MIC (Ertapenem) of 64 µg/mL and an MIC (Imipenem) of 32 µg/mL.
“Citrobacter freundii isolate sewage #207 (carbapenemase genes (PCR): KPC)” was tested, and the MIC (Meropenem) was 64 µg/mL, the MIC (Ertapenem) was 64 µg/mL and the MIC (Imipenem) was 64 µg/mL.
For “Enterobacter asburiae isolate primary sludge #90 (carbapenemase genes (PCR): KPC)”, the MIC (Meropenem) was 64 µg/mL, the MIC (Ertapenem) was 8 µg/mL and the MIC (Imipenem) was 16 µg/mL.
“Enterobacter asburiae isolate primary sludge #91 (carbapenemase genes (PCR): KPC+GES)” showed an MIC (Meropenem) of 32 µg/mL, an MIC (Ertapenem) of 4 µg/mL and an MIC (Imipenem) of 16 µg/mL.
In the case of “Enterobacter asburiae isolate sewage #13 (carbapenemase genes (PCR): KPC)”, the MIC (Meropenem) is reported as 32 µg/mL, the MIC (Ertapenem) is reported as 4 µg/mL and the MIC (Imipenem) is reported as 16 µg/mL.
Work on “Enterobacter asburiae isolate sewage #27 (carbapenemase genes (PCR): KPC)” yielded an MIC (Meropenem) of 128 µg/mL, an MIC (Ertapenem) of 64 µg/mL and an MIC (Imipenem) of 128 µg/mL.
With “Enterobacter asburiae isolate sewage #28 (carbapenemase genes (PCR): KPC)” the MIC (Meropenem) was 128 µg/mL, the MIC (Ertapenem) was 64 µg/mL and the MIC (Imipenem) was 128 µg/mL.
“Enterobacter asburiae isolate sewage #29 (carbapenemase genes (PCR): KPC)” gave an MIC (Meropenem) of 8 µg/mL, an MIC (Ertapenem) of 16 µg/mL and an MIC (Imipenem) of 4 µg/mL.
In the case of “Enterobacter asburiae isolate sewage #32 (carbapenemase genes (PCR): KPC)”, the MIC (Meropenem) is reported as 128 µg/mL, the MIC (Ertapenem) is reported as 64 µg/mL and the MIC (Imipenem) is reported as 128 µg/mL.
Work on “Enterobacter asburiae isolate sewage #63 (carbapenemase genes (PCR): KPC)” yielded an MIC (Meropenem) of 32 µg/mL, an MIC (Ertapenem) of 64 µg/mL and an MIC (Imipenem) of 32 µg/mL.
For “Enterobacter asburiae isolate sewage #121 (carbapenemase genes (PCR): KPC)”, the MIC (Meropenem) was 64 µg/mL, the MIC (Ertapenem) was 8 µg/mL and the MIC (Imipenem) was 32 µg/mL.
For “Enterobacter asburiae isolate sewage #131 (carbapenemase genes (PCR): KPC)”, the MIC (Meropenem) was 64 µg/mL, the MIC (Ertapenem) was 8 µg/mL and the MIC (Imipenem) was 32 µg/mL.
“Enterobacter bugandensis isolate primary sludge #24 (carbapenemase genes (PCR): KPC)” gave an MIC (Meropenem) of 64 µg/mL, an MIC (Ertapenem) of 64 µg/mL and an MIC (Imipenem) of 128 µg/mL.
With “Enterobacter bugandensis isolate primary sludge #28 (carbapenemase genes (PCR): KPC)” the MIC (Meropenem) was 128 µg/mL, the MIC (Ertapenem) was 64 µg/mL and the MIC (Imipenem) was 128 µg/mL.
In the case of “Enterobacter bugandensis isolate primary sludge #42 (carbapenemase genes (PCR): KPC+GES)”, the MIC (Meropenem) is reported as 128 µg/mL, the MIC (Ertapenem) is reported as 64 µg/mL and the MIC (Imipenem) is reported as 128 µg/mL.
“Enterobacter bugandensis isolate secondary sludge #30 (carbapenemase genes (PCR): KPC)” gave an MIC (Meropenem) of 128 µg/mL, an MIC (Ertapenem) of 64 µg/mL and an MIC (Imipenem) of 128 µg/mL.
“Enterobacter bugandensis isolate sewage #22 (carbapenemase genes (PCR): KPC)” gave an MIC (Meropenem) of 128 µg/mL, an MIC (Ertapenem) of 64 µg/mL and an MIC (Imipenem) of 128 µg/mL.
For “Enterobacter bugandensis isolate sewage #24 (carbapenemase genes (PCR): KPC)”, the MIC (Meropenem) was 128 µg/mL, the MIC (Ertapenem) was 64 µg/mL and the MIC (Imipenem) was 128 µg/mL.
“Enterobacter bugandensis isolate sewage #25 (carbapenemase genes (PCR): KPC)” gave an MIC (Meropenem) of 128 µg/mL, an MIC (Ertapenem) of 64 µg/mL and an MIC (Imipenem) of 128 µg/mL.
“Enterobacter bugandensis isolate sewage #31 (carbapenemase genes (PCR): KPC)” gave an MIC (Meropenem) of 128 µg/mL, an MIC (Ertapenem) of 64 µg/mL and an MIC (Imipenem) of 128 µg/mL.
“Enterobacter bugandensis isolate sewage #33 (carbapenemase genes (PCR): KPC)” showed an MIC (Meropenem) of 128 µg/mL, an MIC (Ertapenem) of 64 µg/mL and an MIC (Imipenem) of 128 µg/mL.
“Enterobacter bugandensis isolate sewage #34 (carbapenemase genes (PCR): KPC)” was tested, and the MIC (Meropenem) was 8 µg/mL, the MIC (Ertapenem) was 4 µg/mL and the MIC (Imipenem) was 4 µg/mL.
Test System “Enterobacter bugandensis isolate sewage #76 (carbapenemase genes (PCR): KPC)” has an MIC (Meropenem) of 64 µg/mL, an MIC (Ertapenem) of 64 µg/mL and an MIC (Imipenem) of 64 µg/mL.
“Enterobacter bugandensis isolate sewage #81 (carbapenemase genes (PCR): KPC)” was tested, and the MIC (Meropenem) was 128 µg/mL, the MIC (Ertapenem) was 64 µg/mL and the MIC (Imipenem) was 128 µg/mL.
Test System “Enterobacter bugandensis isolate sewage #83 (carbapenemase genes (PCR): KPC)” has an MIC (Meropenem) of 32 µg/mL, an MIC (Ertapenem) of 8 µg/mL and an MIC (Imipenem) of 16 µg/mL.
With “Enterobacter bugandensis isolate sewage #86 (carbapenemase genes (PCR): KPC)” the MIC (Meropenem) was 64 µg/mL, the MIC (Ertapenem) was 64 µg/mL and the MIC (Imipenem) was 64 µg/mL.
Work on “Enterobacter bugandensis isolate sewage #88 (carbapenemase genes (PCR): KPC)” yielded an MIC (Meropenem) of 64 µg/mL, an MIC (Ertapenem) of 64 µg/mL and an MIC (Imipenem) of 32 µg/mL.
Work on “Enterobacter bugandensis isolate sewage #130 (carbapenemase genes (PCR): KPC)” yielded an MIC (Meropenem) of 64 µg/mL, an MIC (Ertapenem) of 16 µg/mL and an MIC (Imipenem) of 32 µg/mL.
“Enterobacter cloacae isolate primary sludge #6 (carbapenemase genes (PCR): KPC)” was tested, and the MIC (Meropenem) was 64 µg/mL, the MIC (Ertapenem) was 64 µg/mL and the MIC (Imipenem) was 128 µg/mL.
For “Enterobacter cloacae isolate primary sludge #18 (carbapenemase genes (PCR): KPC)”, the MIC (Meropenem) was 64 µg/mL, the MIC (Ertapenem) was 64 µg/mL and the MIC (Imipenem) was 128 µg/mL.
“Enterobacter cloacae isolate primary sludge #21 (carbapenemase genes (PCR): KPC)” gave an MIC (Meropenem) of 64 µg/mL, an MIC (Ertapenem) of 64 µg/mL and an MIC (Imipenem) of 128 µg/mL.
“Enterobacter cloacae isolate primary sludge #35 (carbapenemase genes (PCR): KPC)” showed an MIC (Meropenem) of 64 µg/mL, an MIC (Ertapenem) of 64 µg/mL and an MIC (Imipenem) of 64 µg/mL.
“Enterobacter cloacae isolate primary sludge #40 (carbapenemase genes (PCR): KPC)” was tested, and the MIC (Meropenem) was 64 µg/mL, the MIC (Ertapenem) was 64 µg/mL and the MIC (Imipenem) was 64 µg/mL.
In the case of “Enterobacter cloacae isolate primary sludge #67 (carbapenemase genes (PCR): KPC)”, the MIC (Meropenem) is reported as 64 µg/mL, the MIC (Ertapenem) is reported as 16 µg/mL and the MIC (Imipenem) is reported as 16 µg/mL.
Work on “Enterobacter cloacae isolate primary sludge #69 (carbapenemase genes (PCR): KPC)” yielded an MIC (Meropenem) of 64 µg/mL, an MIC (Ertapenem) of 16 µg/mL and an MIC (Imipenem) of 16 µg/mL.
“Enterobacter cloacae isolate primary sludge #70 (carbapenemase genes (PCR): KPC)” showed an MIC (Meropenem) of 64 µg/mL, an MIC (Ertapenem) of 16 µg/mL and an MIC (Imipenem) of 16 µg/mL.
